{"source": "patent US4211769A", "about": "“Preparations for vaginal administration” (Takeda Chemical Industries, Ltd., priority 1977, dated 1980)", "test_system": "Diestrous female SD rats", "assay": "ovulation induction by vaginal suppositories in oleaginous base (Examples 4, 5)", "format": "in vivo, rat", "settings": "for ED50 (95% fiducial limits) / number of ovulating rats/number of vaginally dosed rats: Witepsol base", "note": "At least one peptide structure holds a part that was inferred or is arguable (an end, a ring closure or a residue)."}
{"smiles": "CC(C)C[C@H](NC(=O)CNC(=O)[C@H](Cc1ccc(O)cc1)NC(=O)[C@H](CO)NC(=O)[C@H](Cc1c[nH]c2ccccc12)NC(=O)[C@H](Cc1c[nH]cn1)NC(=O)[C@@H]1CCC(=O)N1)C(=O)N[C@@H](CCCNC(=N)N)C(=O)N1CCC[C@H]1C(=O)NCC(N)=O", "note": "[natural type LH-RH, (Pyr)Glu-His-Trp-Ser-Tyr-Gly-Leu-Arg-Pro-Gly-NH2]", "values": [{"measurement": "increase of ovulation-stimulating effect over the control (without carboxylic acid)", "setting": "Witepsol base with 10% citric acid (Table 1)", "result": 30, "unit": "times"}, {"measurement": "ED50 (95% fiducial limits)", "setting": "additive none", "result": 24400, "unit": "ng/rat"}, {"measurement": "number of ovulating rats/number of vaginally dosed rats", "setting": "additive none, 10,000 ng/rat", "result": "1/10"}, {"measurement": "number of ovulating rats/number of vaginally dosed rats", "setting": "additive none, 20,000 ng/rat", "result": "2/10"}, {"measurement": "number of ovulating rats/number of vaginally dosed rats", "setting": "additive none, 40,000 ng/rat", "result": "10/10"}, {"measurement": "number of ovulating rats/number of vaginally dosed rats", "setting": "additive none, 60,000 ng/rat", "result": "9/10"}, {"measurement": "number of ovulating rats/number of vaginally dosed rats", "setting": "additive none, 80,000 ng/rat", "result": "10/10"}, {"measurement": "ED50 (95% fiducial limits)", "setting": "citric acid 10%", "result": 820, "unit": "ng/rat"}, {"measurement": "number of ovulating rats/number of vaginally dosed rats", "setting": "citric acid 10%, 400 ng/rat", "result": "1/10"}, {"measurement": "number of ovulating rats/number of vaginally dosed rats", "setting": "citric acid 10%, 600 ng/rat", "result": "1/10"}, {"measurement": "number of ovulating rats/number of vaginally dosed rats", "setting": "citric acid 10%, 800 ng/rat", "result": "4/10"}, {"measurement": "number of ovulating rats/number of vaginally dosed rats", "setting": "citric acid 10%, 1,000 ng/rat", "result": "8/10"}, {"measurement": "number of ovulating rats/number of vaginally dosed rats", "setting": "citric acid 10%, 10,000 ng/rat", "result": "4/4"}]}
